Data: paper PMC4336329 (PLoS ONE, 2015)
Among all 310,000 compounds or so, about 14,000 (4.5%) showed an effect of 50% or more. The effect is printed as a negative number. Some of the results follow.

molecular target: human ether-à-go-go-related gene (hERG) potassium channel (human, UniProt Q12809); test: primary screen, population patch clamp on CHO cells stably expressing hERG
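Also: peak tail current of the secondary pulse compared with the same well before compound.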

Sequence of human ether-à-go-go-related gene (hERG) potassium channel (Q12809 whole entry, looked up): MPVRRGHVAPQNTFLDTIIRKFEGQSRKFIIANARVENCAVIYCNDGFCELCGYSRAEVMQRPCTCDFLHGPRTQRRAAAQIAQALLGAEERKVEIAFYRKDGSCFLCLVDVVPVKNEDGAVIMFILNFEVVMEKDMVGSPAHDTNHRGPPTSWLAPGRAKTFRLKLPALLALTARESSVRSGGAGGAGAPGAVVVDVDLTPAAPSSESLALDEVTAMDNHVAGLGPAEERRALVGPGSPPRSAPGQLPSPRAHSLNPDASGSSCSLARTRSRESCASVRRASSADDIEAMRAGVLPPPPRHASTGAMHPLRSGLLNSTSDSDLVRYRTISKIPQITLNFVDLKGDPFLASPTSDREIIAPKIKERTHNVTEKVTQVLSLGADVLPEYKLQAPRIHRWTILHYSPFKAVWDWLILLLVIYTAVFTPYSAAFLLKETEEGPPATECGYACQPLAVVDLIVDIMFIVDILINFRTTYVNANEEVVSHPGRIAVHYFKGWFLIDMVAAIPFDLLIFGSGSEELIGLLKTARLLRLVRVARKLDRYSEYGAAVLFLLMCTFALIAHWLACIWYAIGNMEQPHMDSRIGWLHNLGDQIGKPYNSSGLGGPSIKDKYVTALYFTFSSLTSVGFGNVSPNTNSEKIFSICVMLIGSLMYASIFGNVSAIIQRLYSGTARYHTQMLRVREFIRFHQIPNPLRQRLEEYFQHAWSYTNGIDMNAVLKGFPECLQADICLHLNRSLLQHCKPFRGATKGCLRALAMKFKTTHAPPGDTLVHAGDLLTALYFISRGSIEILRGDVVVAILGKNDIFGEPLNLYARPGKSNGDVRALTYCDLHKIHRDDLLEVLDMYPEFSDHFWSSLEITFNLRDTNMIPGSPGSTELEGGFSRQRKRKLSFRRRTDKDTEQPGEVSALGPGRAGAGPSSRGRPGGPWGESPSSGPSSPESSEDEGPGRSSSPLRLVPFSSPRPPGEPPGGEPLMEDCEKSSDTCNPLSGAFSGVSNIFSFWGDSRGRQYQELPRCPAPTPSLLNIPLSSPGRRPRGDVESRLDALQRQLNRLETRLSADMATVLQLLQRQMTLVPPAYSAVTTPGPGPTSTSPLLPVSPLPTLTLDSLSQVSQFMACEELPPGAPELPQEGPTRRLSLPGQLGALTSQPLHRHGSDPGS

| SMILES | hERG current change (%, negative = inhibition) at 10uM |
| --- | --- |
| Cc1ccc(S(=O)(=O)N2CCN(C(=O)c3sccc3C)CC2)cc1 | -16.5% |
| CCOP(=O)(OCC)c1nc(-c2ccc(Cl)cc2Cl)oc1N1CCOCC1 | -26% |
| COc1ccccc1NC(=O)Nc1ccccc1SC | -0.488% |
| CC(Sc1nccn1C)C(=O)Nc1ccc(Cl)cn1 (centres unmarked) | 4.6% |
| COc1ccccc1Nc1nc(N)nc(CN2CC(C)CC(C)C2)n1 (centres unmarked) | -73.8% |
| CCNc1nc(SC)nc(N(C#N)CC(=O)OC)n1 | 4.32% |
| Cc1ccc2c(c1)c1nnc(SCC(=O)NC3CC3)nc1n2C | -3.21% |
| N#Cc1nc(-c2ccco2)oc1NCCc1ccccc1 | -5.59% |
| CCCNC(=O)C1(CC2CC(c3ccccc3)=NO2)CCN(C(=O)Cc2ccc(F)cc2)CC1 (centres unmarked) | -64.6% |
| COC(=O)C(Cc1ccc(O)cc1)NC(=O)C(C)Oc1ccccc1 (centres unmarked) | 3.89% |
| COc1ccc(-c2c(NC(=O)C(C)C)n(C)c3ccccc3c2=O)cc1 | 17.6% |
| Cc1ccc(N=Nc2c(O)n(CN3CCOCC3)c3ccccc23)cc1 | 3.48% |
| CNC(CC(C)C)C(=O)NC1C(=O)NC(CC(N)=O)C(=O)NC2C(=O)NC3C(=O)NC(C(=O)NC(C(=O)O)c4cc(O)cc(O)c4-c4cc3ccc4O)C(O)c3ccc(c(Cl)c3)Oc3cc2cc(c3OC2OC(CO)C(O)C(O)C2OC2C[C@](C)(N)C(O)C(C)O2)Oc2ccc(cc2Cl)C1O (some centres unmarked) | 9.61% |
| CC1CC(=O)N(CC(=O)N2CCCC2)c2ccccc2S1 (centres unmarked) | -6.91% |
| Cc1c(C(=O)NCc2n[nH]c(=S)n2-c2ccc(F)cc2)cccc1[N+](=O)[O-] | 8.64% |
| O=C1CCC(=O)N1N1C(=O)C2C3c4ccccc4C(c4ccccc43)C2C1=O (centres unmarked) | 13.1% |
| O=C(COc1ccccc1C(=O)Nc1ccccc1)NCCc1ccccc1 | 34.4% |
| Cc1cc(=O)n(CNC(=O)c2ccccc2)c(=S)[nH]1 | -4.16% |
| O=C(NCC(c1ccco1)N1CCc2ccccc21)c1c(F)cccc1F (centres unmarked) | -7.53% |
| Cc1ccc(S(=O)(=O)N(C)C)cc1NC(=O)CN1C(=O)NC2(CCCc3ccccc32)C1=O (centres unmarked) | -11.8% |
| COc1ccccc1NC(=O)Cn1c(CCC(=O)O)ccc1-c1ccc(C)cc1 | 3.61% |
| O=C(CCN1C(=O)COc2ccccc21)NCc1ccco1 | 4.1% |
| O=C(O)C(=O)O.OC(CN1CCCC1)Cn1ccc2ccccc21 (centres unmarked) | 17.6% |

| SMILES | hERG current change (%, negative = inhibition) at 10uM |
| --- | --- |
| C1CCN(Cc2nnnn2CC2CCCO2)CC1.Cl (centres unmarked) | 22.1% |
| CC(=O)Cc1nsc(NC(=O)c2cc(-c3ccccc3Cl)oc2C)n1 | 13.5% |
| CCOc1cc(C(=O)Nc2ccon2)cc(OCC)c1OCC | -14% |
| O=C(CN1CCN(S(=O)(=O)c2ccccc2)CC1)Nc1ccc(Cl)c(Cl)c1 | -16% |
| CN1CCN(c2ccc(NC(=O)c3ccc(-c4ccc(Cl)cc4)o3)cc2)CC1 | 11.5% |
| CCOC(=O)C(NC(C)=O)(N1CCc2ccccc2C1)C(F)(F)F (centres unmarked) | 5.28% |
| O=C(c1ccc([N+](=O)[O-])cc1)N1C=CC(C(F)(F)F)=NCC1 | 7.28% |
| Cc1ccccc1C(=O)Nc1ccc2c(c1)OCCO2 | 6.96% |
| O=C(NCC1COc2ccccc2O1)C1CCCN(S(=O)(=O)c2cccc3nsnc23)C1 (centres unmarked) | -7.33% |
| COc1ccc(F)c(-c2nc(CN3CCC(c4ccccc4)CC3)c(C)o2)c1 | -39.7% |
| NC1=NC2(CCCCCC2)n2c(nc3ccccc32)N1 | -31.5% |
| O=c1c2ccccc2c(/C=N/NS(=O)(=O)c2ccccc2)c(O)n1-c1ccccn1 | 17.3% |
| Cc1cc(NC(=O)CSc2ncccn2)no1 | 18% |
| COc1cccc(-c2nnc(SCc3nc4ccccc4[nH]3)n2N)c1 | -15.6% |
| O=C(CCNC(=O)c1ccco1)Nc1ccc(Cl)cc1F | -4.96% |
| O=C(CC(NCc1ccccn1)C(=O)O)Nc1ccccc1Cl (centres unmarked) | 16.9% |
| COc1ccc(C)cc1NC(=O)CCCNC(=O)Cn1cnc2sc(C)c(C)c2c1=O | 4.59% |
| CNC(=S)N(Cc1cc2ccc(OC)cc2[nH]c1=O)CC1CCCO1 (centres unmarked) | 2.3% |
| O=C(CN1C(=O)CSc2ncccc21)N1CCOCC1 | -6.66% |
| COc1ccc(S(=O)(=O)N2CCOC2CNC(=O)C(=O)NCc2cccnc2)cc1C (centres unmarked) | -6.8% |
| COC(=O)c1ccccc1NC(=O)Nc1c(C)n(C)n(-c2ccccc2)c1=O | 11.7% |
| Cc1cc2ccccc2c(=O)n1CC(=O)NC1CCCCCC1 | 11.2% |
| COc1ccc(CCC(=O)NCc2ccccc2OC)cc1 | 10.1% |

| SMILES | hERG current change (%, negative = inhibition) at 10uM |
| --- | --- |
| CN(c1nc(-c2ccccc2)cs1)C1CCS(=O)(=O)C1 (centres unmarked) | -16% |
| COc1ccc(-n2cc(CNCCc3cscn3)c(-c3ccccc3Cl)n2)cc1 | -64.5% |
| CN(C)/C=C1/C(=O)N(c2ccc([N+](=O)[O-])cc2)N=C1c1ccccc1 | -25.6% |
| CC(=O)Nc1cc2c(cc1NC(=O)Cn1nc(-c3ccccc3)ccc1=O)OCCO2 | 11.9% |
| O=C(NC1CCOc2ccccc21)c1ccccn1 (centres unmarked) | 6.9% |
| O=C(c1ccc(C(F)(F)F)cc1)C1CCCN(Cc2ccncc2)C1 (centres unmarked) | -23.7% |
| C=C(Cl)COC(=O)[C@H]1C2C=CC(C2)C1C(=O)O (some centres unmarked) | 4.93% |
| O=C(NC(=S)Nc1nc(-c2ccccc2)cs1)c1cccnc1 | 19.7% |
| O=C1CCCC(=O)N1c1ccc(Oc2ccc(Cl)cc2)cc1 | -19.5% |
| O=C1CC(c2ccccc2)CCc2sccc2N1 (centres unmarked) | -5.86% |
| O=S(=O)(/N=C(/NS(=O)(=O)c1ccccc1)c1ccccc1)c1ccccc1 | 20% |
| CC1CCN(C(=O)CN(c2ccc3c(c2)OCO3)S(C)(=O)=O)CC1 | 10.3% |
| CC(=O)Nc1ccc(N2S(=O)(=O)c3ccccc3S2(=O)=O)cc1 | 2.53% |
| CCOc1ccc(C(=O)NCc2ccco2)cc1 | 3.48% |
| Cc1ccc(NC(=O)CCNS(=O)(=O)c2ccc3c(c2)c(=O)n(C)c(=O)n3C)cc1C | 13% |
| CCn1c(CNC(=O)COc2ccc(C(C)C)cc2)nnc1SCC(=O)Nc1ccccc1F | -60.1% |
| COc1ccccc1Cn1[nH]nnc1=S | 18.1% |
| OCCC1CN(Cc2ccc(F)cc2)CCN1CCCc1ccccc1 (centres unmarked) | -68.2% |
| O=C(NCc1ccncc1)C(=O)NCC1OCCCN1S(=O)(=O)c1ccccc1 (centres unmarked) | -4.44% |
| CCOC(=O)c1ccc(-n2c(C)nc3c(cnn3-c3ccccc3C)c2=O)cc1 | 1.21% |
| COc1ccc(CCNC(=O)C2CCN(C(=O)N(C)C)CC2)cc1OC | 10.5% |
| CN(C)CCNC(=O)Nc1ccc([N+](=O)[O-])cc1 | -12% |
| CC(=O)N(c1nnc(-c2cccc(C)c2)s1)C1CCCC1 | 8.79% |

| SMILES | hERG current change (%, negative = inhibition) at 10uM |
| --- | --- |
| COc1ccc(N2CCN(CNC(=O)c3ccccc3)CC2)cc1 | 8.73% |
| CCCC(=O)Nc1ccccc1-c1nnn(CC(=O)Nc2ccc(OCC)cc2)n1 | 2.96% |
| N#Cc1cc2c(nc1SC1CC(=O)N(c3ccccc3)C1=O)CCC2 (centres unmarked) | -14.4% |
| CCOc1ccccc1NC(=S)Nc1ccccc1F | 0.77% |
| O=C(N/N=C/c1ccc2c(c1)OCO2)c1cc(-c2ccncc2)nc2ccccc12 | -3.29% |
| CCN(CC)S(=O)(=O)c1ccc(C)c(NC(=O)CSc2ncc(C(F)(F)F)cc2Cl)c1 | -1.07% |
| COc1cc(NC(=O)NCC2CCN(Cc3ccccc3Cl)CC2)cc(OC)c1OC | 3.03% |
| Cc1cc(C)cc(NC(=O)c2ccc(CNc3c(N4CCCC4)c(=O)c3=O)cc2)c1 | 24.4% |
| CCOC(=O)C/C(C)=N\Nc1nc(-c2ccccc2)cs1 | -14.8% |
| COC(=O)C1=C(c2ccccc2)C[C@@H]2CC[C@H]1N2C(=O)NC1CCCCC1 | -4.97% |
| Cc1cc(C)n(-c2ccc(C)c(Cl)c2)n1 | 0.586% |
| C=C(C)c1cccc(C(C)(C)NC(=O)Nc2cccnc2)c1 | 16.8% |
| CC(=O)NCCn1c(SCC(=O)NCC2CCCO2)nc2ccccc2c1=O (centres unmarked) | -11.1% |
| COc1cccc(NC(=O)COc2ccc(C(=O)N3CCN(C)CC3)cc2)c1 | 15.8% |
| c1ccc(CCNc2nc(-c3cccnc3)cs2)cc1 | -42.7% |
| COCCc1nn2c(=O)cc(COC(=O)c3cc(OC)c(OC)c(OC)c3)nc2s1 | -22.6% |
| CC(C)NC(=O)c1ccc(Cl)cc1Cl | 13.8% |
| CN(C)/C=C1\C(=O)N(C)N=C1C(F)(F)F | -2.18% |
| O=C(CCc1nc2ccccc2c(=O)[nH]1)NCc1ccco1 | -24.1% |
| O=C(CN1CCc2ccccc21)NCc1ccc2c(c1)OCO2 | 3.88% |
